The labels stand for the following.
B1: LINE1-mini (parent)
chain: GGCAGAGCUCAACACAGCGUGGCAAAGUGGCUGUGGCUAGACUGCC

The source gives no read counts; variants with many changes may rest on few reads.

The variants in the series derive from B1. Nature of the series: self-cleavage, relative activity (ratio to wild type); higher = more cleavage; in vitro, sequencing; the parent is a self-cleaving ribozyme.
For the variant GGUAGAGCUCAAAACAGCGUGGCAAAGCGGCUGUGGCUAGACUGCC [C3U C13A U28C], the self-cleavage was determined as 0.04.
Take GGUAGAGCUCAACACUGCGUGGCCAAGUGGCUGUGGCUAGACUGCC [C3U A16U A24C]: the self-cleavage stood at 0.03.
For GGUAGAGCUAAACACAGCGUGGUAAAGUGGCUGUCGCUAGACUGCC [C3U C10A C23U G35C] the value was 0.04.
For GGUAGAGUUCAACACAGCGCGGCAGAGUGGCUGUGGCUAUACUGCU [C3U C8U U20C A25G G40U C46U] the value was 0.03.
As to GGUAGAGCUCAACACAGCGUGGCAACAUGGCUGUGGCUAGAUUACC [C3U A26C G27A C42U G44A], the self-cleavage turned out to be 0.29.
For GGUAGAGCUAAACACAGCGUGGCAAAAUGGCUUUGGCUAGACUGCA [C3U C10A G27A G33U C46A] the value was 0.41; for GGUAGAGGUCAACACAGCGUGGCAAAGUGGCCGUCGCUAGACUGCC [C3U C8G U32C G35C], 0.02; for GGUAGAGCUGAACAAAGCGUGGCAAAGUGGCUGUGGCUAGACUGCC [C3U C10G C15A], 0.05.
For GGUAGAGCUCAACACAGCGUGGCUAAGUGGCUGUGGCUGGACUGCG [C3U A24U A39G C46G] the value was 0.22; for GGUAGAGCUCAACACAGCGUGGCGAAAUGGCUGUGCCUAGACUGCC [C3U A24G G27A G36C], 0.16.
To GGUAGAGCUUAACACAGCUUGGCAAAGGGGCUGUGGCUGGACUGCC [C3U C10U G19U U28G A39G] belongs 0.02; to GGUAGAGCUAUACACAGCGUGGCAAAGUGGCUGUGGCAAGACUGCC [C3U C10A A11U U38A], 0; to GGUAGAGCUCAAAACAGCGUGGCAAAGUGGCUGCGGCUAGACUGCC [C3U C13A U34C], 0.06.
For the variant GGUAGAGCUAAACCCAGCCUGGCAACGUCGCUGUGGCUAGACUGCC [C3U C10A A14C G19C A26C G29C], the self-cleavage worked out at 0.02.
To GGUAGAGCUCAACACCGCGUGGCAAAGUGGCUGUGGCUAGACUUCC [C3U A16C G44U] belongs 0.04; to GGUAGAGCUCAAAACAGCGUGGCAAAGUGGCUGUAUCUAGACUGCC [C3U C13A G35A G36U], 0.17.
For GGUAGAGCUCAACACAGCGUGGCAAUGUGGCUGUUGCUAGACUGCC [C3U A26U G35U], the self-cleavage came out at 0.17.
For GGUAGAGCUCAAAACAGCGUAGCAAAGUGGCUGUGGCUAUACUGCC [C3U C13A G21A G40U], the self-cleavage was found to be 0.72.
To GGUAGAGCUCAACACAGCGUGGCUGAGUGGCUGUGGCUAGACUGCC [C3U A24U A25G] belongs 1.91; to GGUAGAGCUAAACACAGCGUGGCAAAGUUGAUGUGGCUAGACUGCC [C3U C10A G29U C31A], 0.04.
Regarding GGUAGAGCUCAACACAGCGUGGCAAUGUGGCUGGGGCAAGACUGCC [C3U A26U U34G U38A], the self-cleavage turned out to be 0.02.
To GGUAGAGCUAAACACAGCGUGGCAAAGUGGUUGUGGCUACACUGCC [C3U C10A C31U G40C] belongs 0.
To GGUAGAGAUCAACACAGCGUGGCAAAUUGGCUGUGGCUAGACUGCC [C3U C8A G27U] belongs 0.49; to GGUAGAGCUCAACACAGCGUGGCAUAGUGGCUGUAGCUAGCCUGCC [C3U A25U G35A A41C], 0.03.
As to GGUAGAGAUCAACACAGCGUUGCAAAAUGGCUGUGGCUGGACUGCC [C3U C8A G21U G27A A39G], the self-cleavage came to 0.03.
To GGUAGAGCUCAACACAGCGUGGCCAAGUGGCUGUGGCUAGGCUGCC [C3U A24C A41G] belongs 0.15; to GGUAGAGCUGAACACAGCGGGGCAAAGUGGCUGUGGCUAGAUUGCC [C3U C10G U20G C42U], 0.02.
Regarding GGUAGAGCUCAACACAGCGUGGCAAAGUGGCUGUGGCUCGACUGCU [C3U A39C C46U], the self-cleavage was 0.07.
As to GGUAGAGGUUAACACAGCGUGGCUAGGUGGCUGUGGCUAGACUGCC [C3U C8G C10U A24U A26G], the self-cleavage was determined as 0.15.
For GGUAGAGCUCAACACAGCGUGGCAUAGUGGCCGUGGCUAGACUGCC [C3U A25U U32C] the value was 0.26; for GGUAGAGAUCAACACAGCGUGGCAAAAUGGUUGUGGUUACACUGCC [C3U C8A G27A C31U C37U G40C], 0.46; for GGUAGAGCUAAACACAGGGUGGCAAAGUGGCAGUGGCUAGACUGCC [C3U C10A C18G U32A], 0.01.
To GGUAGAGCUCAACACAGCGUGGCCAAGUGGCUGUGGCUAGAGUGGC [C3U A24C C42G C45G] belongs 0.05; to GGUAGAGAUCAAUACAGAGUGGCAAAGUGGCUGUGGCUAGACUGCC [C3U C8A C13U C18A], 0.29; to GGUAGAGGUCAACACAGGGUGACAAAGUGGCUGUGGCUAGACUGCC [C3U C8G C18G G22A], 0.05.
Regarding GGUAGAGCUGAACACGGCGUGGCAAAGUGGCUGUGGCAAGACUGCC [C3U C10G A16G U38A], the self-cleavage amounted to 0.01.
For the variant GGUAGAGCUAAAGACAGCGUGACAAAGUGGCUGUGGCUAGACUGCA [C3U C10A C13G G22A C46A], the self-cleavage was determined as 0.05.
For GGUAGAGCUAAUCAAAGUGUGGCAAAGUGGCUGUGGCUAGACUGAC [C3U C10A A12U C15A C18U C45A] the value was 0.02; for GGUAGAGCUCAAAACAGCAUGGCAAAGUGGCUGUGGCUAGACUGCC [C3U C13A G19A], 0.16; for GGUAGAGGUCAACACAGCGUGGCAAAGUGGCCGAGGCUAGACUGCC [C3U C8G U32C U34A], 0.09.
Turning to GGUAGAGCUGAACACAGCGUGGCAAAGUCGCUGUGGCUAGACUGCC [C3U C10G G29C], the self-cleavage is 0.04.
Take GGUAGAGAUCAACACAGCGUGGCAAAGUGGCUGUGGAUAGACUGCA [C3U C8A C37A C46A]: the self-cleavage came to 1.46.
On to GGUAGAGCUCAACACAGCGUGGCACAGUGGCUGUGGGUAGACUUCC [C3U A25C C37G G44U], for which the self-cleavage amounted to 0.08.
As to GGUAGAGAUCAACACAGCGGGGCAAAGUGGCUGUGGCUAGACUGCC [C3U C8A U20G], the self-cleavage was found to be 0.16.
To GGUAGAGCUUAACACAGCGAGGAAAAGUGGCUGUGGCUACACUGCA [C3U C10U U20A C23A G40C C46A] belongs 0.01.
With GGUAGAGCUCAACACAGCGUGGCAAUGUGCCUGUGGCUAGACUGCC [C3U A26U G30C], the self-cleavage amounted to 0.2.
For GGUAGAGCUAAACAUCGCGUGGCAAAGUGGCUGUGGCUAGACUGCC [C3U C10A C15U A16C] the value was 0.03; for GGUAGAGCUCAACACAGCGUGGCACAGUGUCUGUGGCUAGACUCCC [C3U A25C G30U G44C], 0.09.
For GGUAGAGCUUAAGACAGCGUGGCAAAGUGGUUGUGGCUAUACUGCC [C3U C10U C13G C31U G40U] the value was 0.01.
On to GGUAGAGCUUAACACAGUGUGGCAAAGUGGCUGUGGCUAGACUGCC [C3U C10U C18U], for which the self-cleavage was determined as 0.1.
For GGUAGAGGUCAACACAGCCAGGCAAAGUGGCUGUGGCUAGACUGCC [C3U C8G G19C U20A] the value was 0.18.
For GGUAGAGGUCAACACAGCGUGGUAUAGUGGCUGUGGCUAGACUGCC [C3U C8G C23U A25U] the value was 0.06.
For GGUAGAGCUUAACACAGCGUGGCAAAGUGGUUGUGGCUAGACUGCC [C3U C10U C31U] the value was 0.05; for GGUAGAGGUCAACACAGCGUGGCAAAGAGACUGGGGCUAGACUGCU [C3U C8G U28A G30A U34G C46U], 0.04.
As for GGUAGAGGUCACCACAGCGUGGCAGAGUGGCUGUGGCUAGACUGCC [C3U C8G A12C A25G], the self-cleavage amounted to 0.03.
To GGUAGAGCUUAACCCAGCGUGGCAAAGUGACUGUGGCUAGAUUGGC [C3U C10U A14C G30A C42U C45G] belongs 0.04.

For the origin of these results see the RNAGym collection of RNA variant scans (doi:10.7554/elife.90254).
